These results are taken from the supplement of paper PMC9588766.

Counter-ions that a name gives are not always drawn. Whole data set: some 1,900 compounds, median “cell viability of compound + 1 nM pemigatinib relative to pemigatinib-only (DMSO) wells” near 0.95, cut for the lowest 2% near 0.22. Some of the results follow.

In the test the test system is PDC-DUC18828. As to the kind of experiment: cell viability of compound + 1 nM pemigatinib relative to pemigatinib-only (DMSO) wells (fraction); PDC-DUC18828 is a patient-derived cholangiocarcinoma cell line; higher = less growth inhibition. As to conditions: first compound 1 µM; pemigatinib concentration 1 nM; 72 h. As for the experimental part:
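Selleck Bioactive library screen in the patient-derived FGFR2 fusion-positive ICC cell line PDC-DUC18828 (500 cells/well). Each compound was tested at 1 uM with 1 nM pemigatinib, in triplicate, for 72 h. Viability was read by CellTiter-Glo and normalised to plate DMSO controls. Value is the paper's averaged normalised viability.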
With `Fc1ccc(C(c2ccc(F)cc2)N2CCN(C/C=C/c3ccccc3)CC2)cc1` [Flunarizine 2HCl] + CCN1C(=O)N(c2c(F)c(OC)cc(OC)c2F)Cc2cnc3[nH]c(CN4CCOCC4)cc3c21 [pemigatinib], the cell viability came to 1.01. In the case of `Oc1ccc([C@H]2COc3cc(O)ccc3C2)cc1` [Equol] + CCN1C(=O)N(c2c(F)c(OC)cc(OC)c2F)Cc2cnc3[nH]c(CN4CCOCC4)cc3c21 [pemigatinib] it was 0.986; in that of `O=c1cc(-c2cccc3c2Sc2ccccc2S3)oc(N2CCOCC2)c1` + CCN1C(=O)N(c2c(F)c(OC)cc(OC)c2F)Cc2cnc3[nH]c(CN4CCOCC4)cc3c21 [pemigatinib], 0.998. In the case of `Cc1c(N(C)C)c(=O)n(-c2ccccc2)n1C` [Amidopyrine] + CCN1C(=O)N(c2c(F)c(OC)cc(OC)c2F)Cc2cnc3[nH]c(CN4CCOCC4)cc3c21 [pemigatinib] it was 0.898; in that of `CCOc1cc2ncc(C#N)c(Nc3ccc(F)c(Cl)c3)c2cc1NC(=O)/C=C/CN(C)C` [Pelitinib (EKB-569)] + CCN1C(=O)N(c2c(F)c(OC)cc(OC)c2F)Cc2cnc3[nH]c(CN4CCOCC4)cc3c21 [pemigatinib], 0.745; in that of `Cc1cc(/C=C/C#N)cc(C)c1Nc1ccnc(Nc2ccc(C#N)cc2)n1` [Rilpivirine] + CCN1C(=O)N(c2c(F)c(OC)cc(OC)c2F)Cc2cnc3[nH]c(CN4CCOCC4)cc3c21 [pemigatinib], 1.01. In the case of `CCOC(=O)C1=C(COCCN)NC(C)=C(C(=O)OC)C1c1ccccc1Cl` (stereo unspecified) [Amlodipine] + CCN1C(=O)N(c2c(F)c(OC)cc(OC)c2F)Cc2cnc3[nH]c(CN4CCOCC4)cc3c21 [pemigatinib] it was 0.939. Regarding `Oc1ccc(/C=C/c2cc(O)cc(O)c2)cc1` [Resveratrol] + CCN1C(=O)N(c2c(F)c(OC)cc(OC)c2F)Cc2cnc3[nH]c(CN4CCOCC4)cc3c21 [pemigatinib], the cell viability amounted to 0.998. The value for `Cc1ncc(CCCN(C)C)cc1Nc1ncc2c(n1)-c1ccc(C(F)(F)F)cc1NC(=S)C2` + CCN1C(=O)N(c2c(F)c(OC)cc(OC)c2F)Cc2cnc3[nH]c(CN4CCOCC4)cc3c21 [pemigatinib] was 0.204; that for `COc1ccc(/C=C/C(=O)Nc2ccccc2C(=O)O)cc1OC` [Tranilast] + CCN1C(=O)N(c2c(F)c(OC)cc(OC)c2F)Cc2cnc3[nH]c(CN4CCOCC4)cc3c21 [pemigatinib] was 1.01. In the case of `CCN(CC)CCNC(=O)c1c(C)[nH]c(/C=C2\C(=O)Nc3ccc(F)cc32)c1C` [Sunitinib] + CCN1C(=O)N(c2c(F)c(OC)cc(OC)c2F)Cc2cnc3[nH]c(CN4CCOCC4)cc3c21 [pemigatinib] it was 0.992. In the case of `CCN(CC)CCNC(=O)c1c(C)[nH]c(/C=C2\C(=O)Nc3ccc(F)cc32)c1C` [Sunitinib Malate] + CCN1C(=O)N(c2c(F)c(OC)cc(OC)c2F)Cc2cnc3[nH]c(CN4CCOCC4)cc3c21 [pemigatinib] it was 0.939; in that of `Cc1cccc(C)c1OCC(C)N` (stereo unspecified) [Mexiletine HCl] + CCN1C(=O)N(c2c(F)c(OC)cc(OC)c2F)Cc2cnc3[nH]c(CN4CCOCC4)cc3c21 [pemigatinib], 0.984; in that of `CN1[C@@H]2CC[C@H]1C[C@@H](OC(=O)c1c[nH]c3ccccc13)C2` [Tropisetron] + CCN1C(=O)N(c2c(F)c(OC)cc(OC)c2F)Cc2cnc3[nH]c(CN4CCOCC4)cc3c21 [pemigatinib], 1.01. In the case of `O=S(=O)(NCCSSCCNS(=O)(=O)c1cc(Cl)ccc1Cl)c1cc(Cl)ccc1Cl` + CCN1C(=O)N(c2c(F)c(OC)cc(OC)c2F)Cc2cnc3[nH]c(CN4CCOCC4)cc3c21 [pemigatinib], the cell viability worked out at 0.978.

`CC(=O)[C@H]1CC[C@H]2[C@@H]3C=CC4=CC(=O)CC[C@@]4(C)[C@@H]3CC[C@]12C` [Dydrogesterone] + CCN1C(=O)N(c2c(F)c(OC)cc(OC)c2F)Cc2cnc3[nH]c(CN4CCOCC4)cc3c21 [pemigatinib]: the cell viability amounted to 0.966. The value for `Cc1cc(=O)[nH]c(=S)[nH]1` [Methylthiouracil] + CCN1C(=O)N(c2c(F)c(OC)cc(OC)c2F)Cc2cnc3[nH]c(CN4CCOCC4)cc3c21 [pemigatinib] was 0.893; that for `COc1ccccc1OCC(O)CO` (stereo unspecified) [Guaifenesin] + CCN1C(=O)N(c2c(F)c(OC)cc(OC)c2F)Cc2cnc3[nH]c(CN4CCOCC4)cc3c21 [pemigatinib] was 1; that for `Nc1nc(CC(=O)Nc2ccc(CCNC[C@H](O)c3ccccc3)cc2)cs1` [Mirabegron] + CCN1C(=O)N(c2c(F)c(OC)cc(OC)c2F)Cc2cnc3[nH]c(CN4CCOCC4)cc3c21 [pemigatinib] was 0.836. The value for `CC[C@]1(O)C[C@H]2CN(CCc3c([nH]c4ccccc34)[C@@](C(=O)OC)(c3cc4c(cc3OC)N(C=O)[C@H]3[C@@](O)(C(=O)OC)[C@H](OC(C)=O)[C@]5(CC)C=CCN6CC[C@]43[C@@H]65)C2)C1` [Vincristine] + CCN1C(=O)N(c2c(F)c(OC)cc(OC)c2F)Cc2cnc3[nH]c(CN4CCOCC4)cc3c21 [pemigatinib] was 0.234; that for `C[C@H]1O[C@@H](O[C@H]2[C@@H](O)C[C@H](O[C@H]3[C@@H](O)C[C@H](O[C@H]4CC[C@@]5(C)[C@H](CC[C@@H]6[C@@H]5C[C@@H](O)[C@]5(C)[C@@H](C7=CC(=O)OC7)CC[C@]65O)C4)O[C@@H]3C)O[C@@H]2C)C[C@H](O)[C@@H]1O` [Digoxin] + CCN1C(=O)N(c2c(F)c(OC)cc(OC)c2F)Cc2cnc3[nH]c(CN4CCOCC4)cc3c21 [pemigatinib] was 0.135; that for `CC(C(=O)O)c1ccc(-c2ccccc2)c(F)c1` (stereo unspecified) [Flurbiprofen] + CCN1C(=O)N(c2c(F)c(OC)cc(OC)c2F)Cc2cnc3[nH]c(CN4CCOCC4)cc3c21 [pemigatinib] was 0.918. For the compound `NC(=O)c1cn(Cc2c(F)cccc2F)nn1` [Rufinamide] + CCN1C(=O)N(c2c(F)c(OC)cc(OC)c2F)Cc2cnc3[nH]c(CN4CCOCC4)cc3c21 [pemigatinib], the cell viability amounted to 0.904. The value for `Cc1cc(O)c2c(c1)C(=O)c1cccc(O)c1C2=O` [Chrysophanic Acid] + CCN1C(=O)N(c2c(F)c(OC)cc(OC)c2F)Cc2cnc3[nH]c(CN4CCOCC4)cc3c21 [pemigatinib] was 0.886; that for `CC[C@H]1OC(=O)[C@H](C)[C@@H](O[C@H]2C[C@@](C)(OC)[C@@H](O)[C@H](C)O2)[C@H](C)[C@@H](O[C@@H]2O[C@H](C)C[C@H](N(C)C)[C@H]2O)[C@](C)(O)C[C@@H](C)C(=O)[C@H](C)[C@H]2OC(=O)O[C@@]21C` [Erythromycin Cyclocarbonate] + CCN1C(=O)N(c2c(F)c(OC)cc(OC)c2F)Cc2cnc3[nH]c(CN4CCOCC4)cc3c21 [pemigatinib] was 0.938; that for `Cc1c(OCC(F)(F)F)ccnc1C[S@@+]([O-])c1nc2ccccc2[nH]1` [Dexlansoprazole] + CCN1C(=O)N(c2c(F)c(OC)cc(OC)c2F)Cc2cnc3[nH]c(CN4CCOCC4)cc3c21 [pemigatinib] was 0.969. As to `CN(C)C(=O)C(CCN1CCC(O)(c2ccc(Cl)cc2)CC1)(c1ccccc1)c1ccccc1` [Loperamide HCl] + CCN1C(=O)N(c2c(F)c(OC)cc(OC)c2F)Cc2cnc3[nH]c(CN4CCOCC4)cc3c21 [pemigatinib], the cell viability worked out at 0.936. For `Cc1ccccc1C(=O)Nc1ccc(C(=O)N2CCCC(O)c3cc(Cl)ccc32)c(C)c1` (stereo unspecified) [Tolvaptan] + CCN1C(=O)N(c2c(F)c(OC)cc(OC)c2F)Cc2cnc3[nH]c(CN4CCOCC4)cc3c21 [pemigatinib], the cell viability worked out at 0.996. In the case of `O=C(Nc1cccc(C(F)(F)F)c1)Nc1cc(S(=O)(=O)NC2CC2)ccc1-c1ccsc1` + CCN1C(=O)N(c2c(F)c(OC)cc(OC)c2F)Cc2cnc3[nH]c(CN4CCOCC4)cc3c21 [pemigatinib] it was 0.965; in that of `O=C1c2c(O)cccc2C([C@@H]2O[C@H](CO)[C@@H](O)[C@H](O)[C@H]2O)c2cc(CO)cc(O)c21` (stereo partly specified) [Aloin] + CCN1C(=O)N(c2c(F)c(OC)cc(OC)c2F)Cc2cnc3[nH]c(CN4CCOCC4)cc3c21 [pemigatinib], 0.916; in that of `CC(NC(=O)C(Cc1ccccc1)NC(=O)OCc1ccccc1)C(=O)CF` (stereo unspecified) + CCN1C(=O)N(c2c(F)c(OC)cc(OC)c2F)Cc2cnc3[nH]c(CN4CCOCC4)cc3c21 [pemigatinib], 1.01. Consider `C=CCc1cccc(/C=N/NC(=O)CN2CCN(Cc3ccccc3)CC2)c1O` + CCN1C(=O)N(c2c(F)c(OC)cc(OC)c2F)Cc2cnc3[nH]c(CN4CCOCC4)cc3c21 [pemigatinib], for which the cell viability was 0.98. The value for `CC(C(=O)O)c1ccc2c(c1)[nH]c1ccc(Cl)cc12` (stereo unspecified) [Carprofen] + CCN1C(=O)N(c2c(F)c(OC)cc(OC)c2F)Cc2cnc3[nH]c(CN4CCOCC4)cc3c21 [pemigatinib] was 0.991; that for `O=C(Nc1ccccc1-c1cn2c(CN3CCNCC3)csc2n1)c1cnc2ccccc2n1` + CCN1C(=O)N(c2c(F)c(OC)cc(OC)c2F)Cc2cnc3[nH]c(CN4CCOCC4)cc3c21 [pemigatinib] was 0.882.

For `O=C(O)c1cc(/N=N/c2ccc(O)c(C(=O)O)c2)ccc1O` [Olsalazine Sodium] + CCN1C(=O)N(c2c(F)c(OC)cc(OC)c2F)Cc2cnc3[nH]c(CN4CCOCC4)cc3c21 [pemigatinib], the cell viability came to 0.948.

`CN(C)CC(=O)Nc1ccc2[nH]c(=O)c3ccccc3c2c1` + CCN1C(=O)N(c2c(F)c(OC)cc(OC)c2F)Cc2cnc3[nH]c(CN4CCOCC4)cc3c21 [pemigatinib]: the cell viability stood at 0.986.
